Reference: US20260242371A1, “LIPID PRODRUGS OF BROM[…] USES THEREOF” (priority 2023, published 2026)

assay: In vitro release of 2-bromo-LSD from lipid prodrugs in human plasma supplemented with lipoprotein lipase; details: 40 μM prodrug, human plasma with LPL, 0-180 minutes, 37° C.

Row | Structure (SMILES) | % 2-Br-LSD present at end of experiment
1 | CCCCCCCC/C=C\CCCCCCCC(=O)OCC(COC(=O)CCCCCCC/C=C\CCCCCCCC)OC(=O)CC(C)CCCCCCC(C)CC(=O)n1c(Br)c2c3c(cccc31)C1=C[C@@H](C(=O)N(CC)CC)CN(C)[C@@H]1C2 (stereo partly shown) [Compound I-3, 2BL-C12b′bMe-2-TG-oleate] | ++ (++ representing a percentage release of 2-bromo-LSD between 5-25%)
2 | CCCCCCCC/C=C\CCCCCCCC(=O)OCC(COC(=O)CCCCCCC/C=C\CCCCCCCC)OC(=O)CC(C)CCCCC(=O)OCn1c(Br)c2c3c(cccc31)C1=C[C@@H](C(=O)N(CC)CC)CN(C)[C@@H]1C2 (stereo partly shown) [Compound I-5, 2BL-ASI-C8bMe-2-TG-oleate] | ++ (++ representing a percentage release of 2-bromo-LSD between 5-25%)
3 | CCCCCCCC/C=C\CCCCCCCC(=O)OCC(COC(=O)CCCCCCC/C=C\CCCCCCCC)OC(=O)CC(C)CCCCCCCCC(=O)OCn1c(Br)c2c3c(cccc31)C1=C[C@@H](C(=O)N(CC)CC)CN(C)[C@@H]1C2 (stereo partly shown) [Compound I-6, 2BL-ASI-C12bMe-2-TG-oleate] | ++ (++ representing a percentage release of 2-bromo-LSD between 5-25%)
4 | CCCCCCCC(=O)OCC(COC(=O)CCCCCCC)OC(=O)CC(C)(C)CC(=O)OCn1c(Br)c2c3c(cccc31)C1=C[C@@H](C(=O)N(CC)CC)CN(C)[C@@H]1C2 [Compound I-28, 2BL-ASI-C5bbGMe-2-TG-octanoate] | ++ (++ representing a percentage release of 2-bromo-LSD between 5-25%)
